B1: 47F3F10B4-VH1-VL4 (antibody, human IgG1, kappa)
heavy: QVQLVQSGAEVKKPGASVKVSCKASGYTFTDHYMHWVRQAPGQGLEWMGYIFPNNGVSGYNQNFKDRVTMTRDTSISTAYMELSRLRSDDTAVYYCARRQLGLGTMDYWGQGTLVTVSS[human IgG1 constant region omitted]
light: DIQMTQSPSSLSASVGDRVTITCRASKSVSTSGYNYMHWYQQKPGKAPKLLIYLASNLESGVPSRFSGSGSGTDFTLTISSLQPEDFATYYCQHSKELPWTFGQGTKVEIKRTVAAPSVFIFPPSDEQLKSGTASVVCLLNNFYPREAKVQWKVDNALQSGNSQESVTEQDSKDSTYSLSSTLTLSKADYEKHKVYACEVTHQGLSSPVTKSFNRGEC
B2: 12C9F1B5-hIgG1 (antibody)
heavy: QGQIQLVQSGPELKKPGETVKISCKASGFTNYGMNWVKQAPGKGLKWMGWINPYSGVPTYADDFKGRFAFSLETSASTAYLQINNLKNEDTATYFCARDDGFHYTMDYWGQGTSVTVSS[human IgG1 constant region omitted]
light: DVVLTQTPLSLPVSLGDQASISCRSSQNLVHSNGITYLHWYLQKPGQSPKLLIYKVSNRFSGVPDRFSGSGSGTDFTLTISRVEAEDLGVYFCSQSTLVPWTFGGGTKLEIKRTVAAPSVFIFPPSDEQLKSGTASVVCLLNNFYPREAKVQWKVDNALQSGNSQESVTEQDSKDSTYSLSSTLTLSKADYEKHKVYACEVTHQGLSSPVTKSFNRGEC
B3: 37F11A10-hIgG1 (antibody)
heavy: QIQLVQSGPELKKPGETVKISCKASGDTFRNYGMNWVKQAPGKGLKWMGWINPYSGVPTYADDFKGRFAFSLETSASTAFLQINNLKNEDTATYFCARDDGFHYTMDYWGLGTSVTVSS[human IgG1 constant region omitted]
light: DVVMTQTPLSLPVSLGDQASISCRSSQSLLHSNGITYLHWYLQKPGQSPKLLTYKVSHRFSGVPDRFSGSGSGTDFTLKISRVEAEDLGVYFCSQSTHVPWTFGGGTKLEIRRTVAAPSVFIFPPSDEQLKSGTASVVCLLNNFYPREAKVQWKVDNALQSGNSQESVTEQDSKDSTYSLSSTLTLSKADYEKHKVYACEVTHQGLSSPVTKSFNRGEC
B4: 43H11G12-hIgG1 (antibody)
heavy: QIQLVQSGPELKKPGETVKISCKASGYNFRDFGMNWVKQAPGKGLKWMGWLNSYSGVPTYADDFKGRFVLSLETSASTAYLQINNLINEDTATYFCGRDDGYNYTMNYWGQGTSVTVSS[human IgG1 constant region omitted]
light: DVVMTQAPLSLPVSLGDQASISCRSSQSLVHSNGITYLHWYLQRAGQSPQLLIYKVSNRFSGVPDRFSGSGSGTDFTLKISRVEAEDLGVYFCSQSTHVPWTFGGGTKLEIKRTVAAPSVFIFPPSDEQLKSGTASVVCLLNNFYPREAKVQWKVDNALQSGNSQESVTEQDSKDSTYSLSSTLTLSKADYEKHKVYACEVTHQGLSSPVTKSFNRGEC
B5: 47C7E3-hIgG1 (antibody)
heavy: QIQLVQSGPELKKPGETVKISCKASGYTFTNFGMNWVKQAPGKGLKWMGWIYTPSGVPIYADDFKGRFAVSLETSASTAYLQINNLKNEDTATYFCARDDGYYYTMDYWGQGTSVTVSS[human IgG1 constant region omitted]
light: DDVMTQTPLSLPVSLGDHASISCRSSQSLVHSNGDTYLHWYLQKPGQSPKLLIYKVSNRFSGVPDRFSGSGSGTDFTLKISRVEAEDLGVYFCSQSTHVPWTFGGGTKLEIKRTVAAPSVFIFPPSDEQLKSGTASVVCLLNNFYPREAKVQWKVDNALQSGNSQESVTEQDSKDSTYSLSSTLTLSKADYEKHKVYACEVTHQGLSSPVTKSFNRGEC
B6: 31H11B1-hIgG1 (antibody)
heavy: QVQLQQPGAELGKPGTSVKLSCKASGYTFTSYWMHWVKQRPGQGLEWIGHINPNSGSTNQNAKFKNKATLTVDESSSTAYMQLSTLTSEDSAVYYCTRSGSNYRRNYFDYWGQGTTLTVSS[human IgG1 constant region omitted]
light: DIQMTQSSSYLSVSLGGRVTITCKASDHINNWLAWYQQKPGNAPRLLISGATSLETGVPSRFSGSGSGKDYTLSITSLQTEDVATYYCQQYWSTPLTFGAGTKLELKRTVAAPSVFIFPPSDEQLKSGTASVVCLLNNFYPREAKVQWKVDNALQSGNSQESVTEQDSKDSTYSLSSTLTLSKADYEKHKVYACEVTHQGLSSPVTKSFNRGEC
B7: 38D6A4-hIgG1 (antibody)
heavy: QIQLVQSGPELKKPGEAVKISCKASGSTFTDFGMNWVRQAPGKGLKWMGWINPYSGVPTYADEFKGRFVFSLETSARVAYMQINDLKNEDTATYFCARDDGYHYTMDYWGQGTSVTVSS[human IgG1 constant region omitted]
light: DVVMTQTPLPLPVSLGDQASISCRSSQSLIHSNGITYLHWYLQKPGQSPKLLIYKVSNRFSGVPDRFTGSGSGTDFTLKISRVEAEDLGVYFCSQSTHVPWTFGGGSKLEIRRTVAAPSVFIFPPSDEQLKSGTASVVCLLNNFYPREAKVQWKVDNALQSGNSQESVTEQDSKDSTYSLSSTLTLSKADYEKHKVYACEVTHQGLSSPVTKSFNRGEC
B8: 38F11B2-hIgG1 (antibody)
heavy: QIQLVQSGPELKKPGETVKISCKASGYTFIDYGMNWVKQAPGKGLKWMGWINIYSGVPTYADDFKGRFAFSLETSANTAYLQINNLKNEDTATYFCARDDGYHYTMNYWGQGTSVTVSS[human IgG1 constant region omitted]
light: DIVMTQTPLSLPVSLGDQASISCRSSQSLVHSNGITYLHWYLQKSGQSPKLLIYKVSNRFSGVPDRFSGSGSGTAFTLKISRVEAEDLGVYFCSQSTHVPWTFGGGTKLEIKRTVAAPSVFIFPPSDEQLKSGTASVVCLLNNFYPREAKVQWKVDNALQSGNSQESVTEQDSKDSTYSLSSTLTLSKADYEKHKVYACEVTHQGLSSPVTKSFNRGEC
B9: 34A9C12-hIgG1 (antibody)
heavy: QGQIQLVQSGPELKKSGETVKISCKASGFTNYGINWVKQAPGKGLKWMGWINPYSGVPTYADDFKGRFAFSLETSASTAYLQINNLKNEDSATYFCARDDGFHYTMDYWGQGTSVTVSS[human IgG1 constant region omitted]
light: DVVLIQTPLSLPVSLGDQASISCRSSQNLVHSNGITYLHWYLQKPGQSPKLLIYKVSNRFSGVPDRFSGSGSGTDFTLKISRVEAEDLGVYFCSQSTLVPWTFGGGTKLEIKRTVAAPSVFIFPPSDEQLKSGTASVVCLLNNFYPREAKVQWKVDNALQSGNSQESVTEQDSKDSTYSLSSTLTLSKADYEKHKVYACEVTHQGLSSPVTKSFNRGEC
B10: 37D11F5B8-hIgG1 (antibody)
heavy: QIQLVQSGPELKKPGETVKISCKASGDTFRNNGMNWVKQAPGKGLKWMGWINPYSGVPTYADDFKGRFAFSLETSASTAFLQINNLKNEDTATYFCARDDGYHYTMDFWGLGTSVTVSS[human IgG1 constant region omitted]
light: DVVMTQTPLSLPVSLGDQASISCRSSQSLVHSNGITYLHWYLQKPGQSPKLLTYKVSHRFSGVPDRFSGSGSGTDFTLKISRVEAEDLGVYFCSQSTHVPWTFGGGTKLEIKRTVAAPSVFIFPPSDEQLKSGTASVVCLLNNFYPREAKVQWKVDNALQSGNSQESVTEQDSKDSTYSLSSTLTLSKADYEKHKVYACEVTHQGLSSPVTKSFNRGEC

Molecular target: human B7-H3 (human) (UniProt Q5ZPR3)
Assay: cell-based or functional assay

Work on B1 yielded a CDC % Relative activity (EC50 of positive control DS-5573a / EC50 of sample), plate 01 of 96.1%.

Binder B1 has a CDC % Relative activity (EC50 of positive control DS-5573a / EC50 of sample), plate 02 of 114%.

Work on B1 yielded a CDC EC50 (% target cell lysis, Cell Titer-Glo), plate 01 of 0.619 µg/mL.

B1 was tested, and the CDC EC50 (% target cell lysis, Cell Titer-Glo), plate 02 was 0.549 µg/mL.

Molecular target: human B7-H3 (human), Q5ZPR3
Sequence (Q5ZPR3 29-534): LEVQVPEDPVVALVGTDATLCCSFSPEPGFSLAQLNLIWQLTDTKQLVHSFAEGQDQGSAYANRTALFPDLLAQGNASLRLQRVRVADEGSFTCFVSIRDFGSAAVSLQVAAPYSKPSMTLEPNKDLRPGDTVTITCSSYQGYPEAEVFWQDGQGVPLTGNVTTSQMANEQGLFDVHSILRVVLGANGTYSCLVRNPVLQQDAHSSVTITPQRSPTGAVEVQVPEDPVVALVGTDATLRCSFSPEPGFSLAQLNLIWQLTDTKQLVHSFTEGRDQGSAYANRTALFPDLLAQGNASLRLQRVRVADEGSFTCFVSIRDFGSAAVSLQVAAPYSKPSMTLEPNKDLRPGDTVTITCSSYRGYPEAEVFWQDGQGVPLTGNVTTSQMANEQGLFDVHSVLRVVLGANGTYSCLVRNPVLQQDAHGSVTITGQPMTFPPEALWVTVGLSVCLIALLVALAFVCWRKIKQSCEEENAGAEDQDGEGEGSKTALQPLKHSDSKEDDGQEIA
Assay: cell-based or functional assay

First: B2
Second: B3
The ADCC % Relative activity (EC50 of positive control MGA-271 / EC50 of sample), plate 01 of the first is higher: 1520% for the first, 1180% for the second.

First: B8
Second: B9
The ADCC % Relative activity (EC50 of positive control MGA-271 / EC50 of sample), plate 01 of the first is higher: 1480% for the first, 1160% for the second.

B10 gave an ADCC % Relative activity (EC50 of positive control MGA-271 / EC50 of sample), plate 01 of 1070%.

B2 and B3 are within 1.5-fold of each other in ADCC EC50 (% target cell lysis, LDH; NK92/CD16a-VV effector cells), plate 01: 0.00259 µg/mL for the first, 0.00334 µg/mL for the second.

B8 and B9 are within 1.5-fold of each other in ADCC EC50 (% target cell lysis, LDH; NK92/CD16a-VV effector cells), plate 01: 0.00266 µg/mL for the first, 0.00341 µg/mL for the second.

B10 showed an ADCC EC50 (% target cell lysis, LDH; NK92/CD16a-VV effector cells), plate 01 of 0.00368 µg/mL.

Going from B2 to B3, the CDC % Relative activity (EC50 of positive control DS-5573a / EC50 of sample) falls from 230% to 193%.

Going from B4 to B5, the CDC % Relative activity (EC50 of positive control DS-5573a / EC50 of sample) falls from 567% to 275%.

First: B6
Second: B7
The CDC % Relative activity (EC50 of positive control DS-5573a / EC50 of sample) of the first is higher: 176% for the first, 137% for the second.

First: B8
Second: B9
The CDC % Relative activity (EC50 of positive control DS-5573a / EC50 of sample) of the first is lower: 216% for the first, 257% for the second.

For B10, the CDC % Relative activity (EC50 of positive control DS-5573a / EC50 of sample) was 258%.

B2 and B3 are within 1.5-fold of each other in CDC EC50 (% target cell lysis, Cell Titer-Glo): 0.299 µg/mL for the first, 0.357 µg/mL for the second.

Compared with B4, B5 is 2.1-fold higher in CDC EC50 (% target cell lysis, Cell Titer-Glo): 0.122 µg/mL for the first, 0.251 µg/mL for the second.

B6 and B7 are within 1.5-fold of each other in CDC EC50 (% target cell lysis, Cell Titer-Glo): 0.393 µg/mL for the first, 0.503 µg/mL for the second.

B8 and B9 are within 1.5-fold of each other in CDC EC50 (% target cell lysis, Cell Titer-Glo): 0.319 µg/mL for the first, 0.269 µg/mL for the second.

Binder B10 has a CDC EC50 (% target cell lysis, Cell Titer-Glo) of 0.267 µg/mL.

First: B4
Second: B5
The ADCC % Relative activity (EC50 of positive control MGA-271 / EC50 of sample), plate 02 of the first is higher: 2740% for the first, 1200% for the second.

Compared with B6, B7 is lower in ADCC % Relative activity (EC50 of positive control MGA-271 / EC50 of sample), plate 02: 1360% for the first, 392% for the second.

First: B4
Second: B5
The ADCC EC50 (% target cell lysis, LDH; NK92/CD16a-VV effector cells), plate 02 of the first is 2.3-fold lower: 0.00161 µg/mL for the first, 0.00368 µg/mL for the second.

Compared with B6, B7 is 3.5-fold higher in ADCC EC50 (% target cell lysis, LDH; NK92/CD16a-VV effector cells), plate 02: 0.00325 µg/mL for the first, 0.0113 µg/mL for the second.

Molecular target: human B7-H3 (human) (UniProt Q5ZPR3)
Assay: flow cytometry (FACS) on CHO-K1 cells expressing human B7-H3; goat anti-human IgG (H+L) secondary

With B1 the EC50 was 0.888 nM.

Source: patent US20250188167A1
